Experimental data reported in article PMC4336329 (PLoS ONE, 2015).
Hit rate of the full screen: of about 310,000 compounds, about 2,200 (0.71%) showed an effect of 50% or more. The effect is printed as a negative number. This is one part of the list.

The compounds below were run against human ether-à-go-go-related gene (hERG) potassium channel (human, UniProt Q12809) (assay: primary screen, population patch clamp on CHO cells stably expressing hERG).
human ether-à-go-go-related gene (hERG) potassium channel, sequence (Q12809 whole entry, looked up): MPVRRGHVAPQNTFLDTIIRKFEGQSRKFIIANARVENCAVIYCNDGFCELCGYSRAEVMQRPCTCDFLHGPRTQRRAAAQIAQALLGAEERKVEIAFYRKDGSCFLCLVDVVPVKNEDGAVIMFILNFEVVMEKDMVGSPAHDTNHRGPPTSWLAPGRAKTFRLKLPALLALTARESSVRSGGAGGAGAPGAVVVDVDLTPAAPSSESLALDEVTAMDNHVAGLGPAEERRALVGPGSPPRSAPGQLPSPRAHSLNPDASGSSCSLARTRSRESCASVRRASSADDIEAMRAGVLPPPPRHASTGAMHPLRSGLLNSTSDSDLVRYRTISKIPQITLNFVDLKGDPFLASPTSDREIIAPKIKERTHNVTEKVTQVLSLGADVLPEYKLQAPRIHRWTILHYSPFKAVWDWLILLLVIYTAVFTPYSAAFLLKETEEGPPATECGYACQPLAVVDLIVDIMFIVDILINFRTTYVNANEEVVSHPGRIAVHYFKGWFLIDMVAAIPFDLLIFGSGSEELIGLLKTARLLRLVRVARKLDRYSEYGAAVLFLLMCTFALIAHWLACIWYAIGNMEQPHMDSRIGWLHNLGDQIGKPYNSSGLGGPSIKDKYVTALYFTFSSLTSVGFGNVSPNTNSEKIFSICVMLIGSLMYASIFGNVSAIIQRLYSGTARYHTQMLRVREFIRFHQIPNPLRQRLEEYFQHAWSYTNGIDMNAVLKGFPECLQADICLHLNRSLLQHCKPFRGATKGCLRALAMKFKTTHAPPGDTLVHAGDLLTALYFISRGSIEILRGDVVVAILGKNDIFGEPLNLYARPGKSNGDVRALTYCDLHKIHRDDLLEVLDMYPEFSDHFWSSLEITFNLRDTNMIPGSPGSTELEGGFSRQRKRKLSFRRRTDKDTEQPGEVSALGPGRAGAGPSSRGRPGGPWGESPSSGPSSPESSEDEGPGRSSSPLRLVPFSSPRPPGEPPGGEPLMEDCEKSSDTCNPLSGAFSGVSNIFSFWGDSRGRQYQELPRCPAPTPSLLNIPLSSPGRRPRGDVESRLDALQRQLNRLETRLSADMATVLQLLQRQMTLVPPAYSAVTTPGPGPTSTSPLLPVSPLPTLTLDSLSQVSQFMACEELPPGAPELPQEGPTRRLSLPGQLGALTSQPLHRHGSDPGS

Row | SMILES | hERG current change (%, negative = inhibition) at 1uM [%]
1 | COc1ccc(C)cc1NC(=O)C1CCN(S(=O)(=O)c2ccc3c(c2)C(C)(C)C(=O)N3C)CC1 | 11.5
2 | COC(=O)C1=C(c2ccc(-c3ccccc3)c(F)c2)C[C@@H]2CC[C@H]1N2C(=O)N1CCC(C)CC1 | 11.7
3 | CC(C)CNC(=O)COC(=O)c1ccc([N+](=O)[O-])cc1Cl | 0.162
4 | O=C(Cn1cc(C(F)(F)F)ccc1=O)N1CCc2ccccc2C1 | 13.2
5 | Cc1cccc(C(C)C)c1NC(=O)c1cc2ccccc2o1 | 16.7
6 | Oc1c(N=NC(=S)Nc2ccccc2F)c2ccccc2n1Cc1ccc(F)cc1 | 12.9
7 | CC(=O)Nc1ccc(S(=O)(=O)N2CCN(CC(O)COc3ccc4ccccc4c3)CC2)cc1 (stereo not drawn) | 4.92
8 | COc1ccc(CCNC(=S)N2CCN(S(=O)(=O)c3ccccc3F)CC2)cc1 | 6.64
9 | COc1ccc(C(=O)CSc2nnc(C3CC3)n2N)cc1 | -0.707
10 | c1ccc(OCCCn2nnc(-c3cccnc3)n2)cc1 | 4.27
11 | COC(=O)C1=C(NC(=O)CCCCl)CCS1 | 20.1
12 | Nc1c(-c2ccsc2)cnc2ncnn12 | 10.2
13 | O=C(c1cccs1)N1CCc2ccccc2C1 | 9.68
14 | CCOC(=O)C1=C(C)N=C2SCCC(=O)N2[C@@H]1c1cccs1 | 9.75
15 | CC1CCN(S(=O)(=O)N2CCC(C(=O)NCCN3CCOCC3)CC2)CC1 | 7.15
16 | O=C(O)c1cnn2c(C(F)(F)F)cc(-c3ccccc3)nc12 | 9.54
17 | COc1ccc(NS(=O)(=O)c2ccc3c(c2)NC(=O)CO3)c(OC)c1 | 8.01
18 | Br.NCc1cc(=O)[nH]o1 | 11.9
19 | COc1cc(NC(=O)Cn2c(=O)n(CC3CCCO3)c(=O)c3cc(OC)c(OC)cc32)cc(OC)c1 (stereo not drawn) | 12.9

Row | SMILES | hERG current change (%, negative = inhibition) at 1uM [%]
20 | Cc1ccc(Oc2nnc(-c3ccc(C)cc3)c3ccccc23)cc1 | 9.14
21 | Cc1csc(NC(=O)c2ccc3nc[nH]c3c2)n1 | 7.65
22 | CC(C)c1nnc(NC(=O)c2ccc(S(=O)(=O)N3CCOCC3)cc2)s1 | 9.24
23 | COc1ccc(-n2nc(C(=O)NCC(=O)N3CCN(Cc4ccccc4)CC3)c3ccccc3c2=O)cc1 | 13.1
24 | O=C(Nc1ccccc1)C1CCCCN1S(=O)(=O)c1ccccc1 (stereo not drawn) | -2.5
25 | O=S(=O)(c1ccccc1F)N1CCN(c2nc(-c3cccnc3)nc3ccccc23)CC1 | 2.38
26 | O=C(NC1CCN(S(=O)(=O)c2ccccc2C(F)(F)F)CC1)c1ccco1 | 1.28
27 | CCC(=O)NC(=S)Nc1ccc(NC(=O)c2cccc([N+](=O)[O-])c2C)cc1 | 17.8
28 | CC(CC(=O)N(C)CC(=O)Nc1ccc(N2CCOCC2)cc1)c1ccccc1 (stereo not drawn) | 0.22
29 | CCOc1ccc(-c2cc(C(=O)NCCCn3ccnc3)c3cc(Br)ccc3n2)cc1 | 5.17
30 | CN1CCN(Cc2cn3cccnc3n2)CC1 | 15.9
31 | COc1cc(/C=N\NC(=O)c2ccc(Cn3nc([N+](=O)[O-])c(Cl)c3C)o2)ccc1O | -13.7
32 | Nc1nc2c3ccccc3nc(C3CC3)n2n1 | 11.7
33 | COc1ccccc1-n1c(CCn2nc(C)c(Br)c2C)n[nH]c1=S | 11.8
34 | CCn1nc(C)c(C2C(C#N)=C(N)Oc3n[nH]c(C)c32)c1C (stereo not drawn) | 9.87
35 | CC(=O)NC/C(C)=N\Nc1ccc([N+](=O)[O-])cc1 | -9.38
36 | COc1cc(C(C2C(=O)CC(C)(C)CC2=O)C2C(=O)CC(C)(C)CC2=O)cc(OC)c1OC | 9.47
37 | O=C(NNC(=O)c1ccccc1C(=O)O)c1ccc(O)cc1 | 5.97
38 | O=C(CCC1CCCC1)Nc1cccn(Cc2ccccc2Br)c1=O | 5.62

Row | SMILES | hERG current change (%, negative = inhibition) at 1uM [%]
39 | O=C(c1cc2ccccc2c(=O)o1)N1CCCCCC1 | 4.53
40 | Cl.Fc1ccccc1COc1ccc(Br)cc1CNCc1ccncc1 | -22.4
41 | CC(C)CCNC(=O)C1CCC(CNc2c(N3CCC(C)CC3)c(=O)c2=O)CC1 (stereo not drawn) | 8.49
42 | O=S(=O)(Cc1ccccc1)Nc1ccc(S(=O)(=O)N2CCCC2)cc1 | 19.8
43 | CCCCn1c(=O)nc2n(-c3ccc(Cl)cc3)c3ccccc3cc-2c1=O | 13.6
44 | CCOc1cccc(-c2nn3c(-c4ccccn4)nnc3s2)c1 | 6.65
45 | Cn1ccnc1SCc1cccc([N+](=O)[O-])c1 | 0.244
46 | CCc1nnc(NC(=O)CSc2sc3c(O)cc(=O)[nH]c3c2C#N)s1 | 1.62
47 | CC(Oc1ccc(Br)cc1)C(=O)O/N=C(\N)c1ccncc1 (stereo not drawn) | -4.91
48 | COc1cc(OC)cc(C(=O)NCCSCc2ccc(Cl)cc2)c1 | 7.06
49 | COCCNc1nc2nonc2nc1N(C)Cc1ccc(C)cc1 | 4.35
50 | CCc1[nH]nc(C(=O)N2CCCC(Nc3cccc(F)c3)C2)c1C (stereo not drawn) | 11.4
51 | CC1=CC2=NC(=O)/C(=C\c3cccn3CCOc3ccc(C)c(C)c3)C(=N)N2O1 | 7.63
52 | Cc1ccc(C(=O)Nc2nc3ccccc3s2)s1 | 3.25
53 | COC(=O)c1ccccc1NC(=O)c1ccccc1NS(C)(=O)=O | 7.56
54 | COC(=O)c1ccc(COC(=O)c2cnc(Cl)c(Cl)c2)cc1 | 15.5
55 | CCn1ccnc1CNC(=O)c1cc(COc2ccc(F)cc2F)on1 | 7.9
56 | CCN1CCN(CCNC(=O)c2ccc3c(c2)N(Cc2ccc(F)cc2)C(=O)c2ccccc2S3=O)CC1 (stereo not drawn) | 10.7
57 | O=C(C1CCCO1)N(c1cccc(Cl)c1)C1C=CS(=O)(=O)C1 (stereo not drawn) | 5.23
